Reference: the supplement of paper PMC10126150
Sequences with one replicate were seen in a single cluster, so their values are uncertain.

Test system: ATP
Assay: switch fluorescence ratio, 500 uM ATP over buffer (Cy3 cluster intensity, sum of 5 cycles each) (fold (ratio)); higher = stronger signal-on switching upon ATP binding; sequences stand for … in TCGTCGGCAGCGTCAGATGTGTATAAGAGACAGTTTTTTTTTTTTTTTTTTTTTTTTT…TC
Conditions: aptamer strand: ATP DNA aptamer (quencher-CACCTGGGGGAGTATTGCGGAGGAAGG + anchor), 100 nM annealed; ATP concentration: 500 uM; one replicate
Method in brief: (§1)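 For every switch-domain sequence, the fluorescence ratio is the mean of per-cluster values, each being summed target-cycle Cy3 intensity over summed buffer-cycle Cy3 intensity. Clusters outside 100-1000 RFU were excluded. On a modified Illumina MiSeq flow-cell, the Cy3-labelled switching-strand clusters were annealed to 100 nM quencher-labelled ATP aptamer, imaged in selection buffer and then after 15 min with 500 uM ATP at 22 °C. Five such cycles were run, with NaOH stripping and re-annealing between them.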
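Further: ATP exposure 15 min at 22 °C before imaging.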

Q: Which switch fluorescence ratio does the source give for TTTGTTATAG here?
A: The switch fluorescence ratio was 1.06.

Q: Which switch fluorescence ratio does the source give for TTTGTTTAC here?
A: The switch fluorescence ratio was 1.02.

Q: Which switch fluorescence ratio does the source give for TTTTAAAA here?
A: The switch fluorescence ratio was 0.964.

Q: For TTTTAAACCC, which switch fluorescence ratio is on record?
A: The switch fluorescence ratio was 1.01.

Q: How did the switch fluorescence ratio turn out when TTTTAAAGAA was run?
A: The switch fluorescence ratio was 0.958.

Q: How did the switch fluorescence ratio turn out when TTTTAACTCC was run?
A: The switch fluorescence ratio was 1.07.

Q: TTTTACCAT was tested. Which switch fluorescence ratio did it give?
A: Its switch fluorescence ratio is 1.02.

Q: TTTTACCATA was tested. Which switch fluorescence ratio did it give?
A: Its switch fluorescence ratio is 1.07.

Q: TTTTACCTCA was tested. Which switch fluorescence ratio did it give?
A: Its switch fluorescence ratio is 0.984.

Q: How did the switch fluorescence ratio turn out when TTTTAGAAAA was run?
A: The switch fluorescence ratio was 0.968.

Q: For TTTTAGGAAA, which switch fluorescence ratio is on record?
A: Its switch fluorescence ratio is 0.964.

Q: TTTTAGGG was tested. Which switch fluorescence ratio did it give?
A: Its switch fluorescence ratio is 1.4.

Q: With TTTTATCCC as the sequence, how does the switch fluorescence ratio read?
A: Its switch fluorescence ratio is 0.954.

Q: Which switch fluorescence ratio does the source give for TTTTCACTAG here?
A: Its switch fluorescence ratio is 1.01.

Q: Which switch fluorescence ratio does the source give for TTTTCAGCTT here?
A: The switch fluorescence ratio was 1.99.

Q: With TTTTCATATA as the sequence, how does the switch fluorescence ratio read?
A: The switch fluorescence ratio was 1.02.

Q: With TTTTCCATAG as the sequence, how does the switch fluorescence ratio read?
A: Its switch fluorescence ratio is 1.

Q: Which switch fluorescence ratio does the source give for TTTTCGTAAA here?
A: The switch fluorescence ratio was 1.08.

Q: TTTTCTACAC was tested. Which switch fluorescence ratio did it give?
A: Its switch fluorescence ratio is 0.954.

Q: Which switch fluorescence ratio does the source give for TTTTCTAT here?
A: The switch fluorescence ratio was 0.989.

Q: With TTTTCTGAGA as the sequence, how does the switch fluorescence ratio read?
A: Its switch fluorescence ratio is 0.986.

Q: TTTTCTGAGC was tested. Which switch fluorescence ratio did it give?
A: The switch fluorescence ratio was 0.973.

Q: For TTTTCTTAAT, which switch fluorescence ratio is on record?
A: Its switch fluorescence ratio is 1.01.

Q: Which switch fluorescence ratio does the source give for TTTTGAACT here?
A: The switch fluorescence ratio was 0.952.

Q: TTTTGAAGG was tested. Which switch fluorescence ratio did it give?
A: The switch fluorescence ratio was 0.926.

Q: TTTTGACTG was tested. Which switch fluorescence ratio did it give?
A: Its switch fluorescence ratio is 0.966.

Q: For TTTTGATGAA, which switch fluorescence ratio is on record?
A: Its switch fluorescence ratio is 0.996.

Q: How did the switch fluorescence ratio turn out when TTTTGATGGA was run?
A: The switch fluorescence ratio was 0.98.

Q: TTTTGCCAAT was tested. Which switch fluorescence ratio did it give?
A: The switch fluorescence ratio was 1.02.

Q: For TTTTGCGTCC, which switch fluorescence ratio is on record?
A: Its switch fluorescence ratio is 1.09.

Q: With TTTTGCTCCA as the sequence, how does the switch fluorescence ratio read?
A: The switch fluorescence ratio was 1.04.

Q: Which switch fluorescence ratio does the source give for TTTTGGACTG here?
A: The switch fluorescence ratio was 0.987.

Q: With TTTTGGCTT as the sequence, how does the switch fluorescence ratio read?
A: Its switch fluorescence ratio is 0.997.

Q: TTTTGGGGA was tested. Which switch fluorescence ratio did it give?
A: Its switch fluorescence ratio is 1.01.

Q: Which switch fluorescence ratio does the source give for TTTTTAAGTA here?
A: The switch fluorescence ratio was 0.961.

Q: For TTTTTACAGC, which switch fluorescence ratio is on record?
A: The switch fluorescence ratio was 0.998.

Q: For TTTTTACGTA, which switch fluorescence ratio is on record?
A: Its switch fluorescence ratio is 1.17.

Q: How did the switch fluorescence ratio turn out when TTTTTACTCA was run?
A: The switch fluorescence ratio was 1.03.

Q: For TTTTTCAGAC, which switch fluorescence ratio is on record?
A: The switch fluorescence ratio was 1.05.

Q: TTTTTCGAGT was tested. Which switch fluorescence ratio did it give?
A: The switch fluorescence ratio was 0.919.

Q: How did the switch fluorescence ratio turn out when TTTTTGCG was run?
A: Its switch fluorescence ratio is 1.02.

Q: With TTTTTGGTTC as the sequence, how does the switch fluorescence ratio read?
A: Its switch fluorescence ratio is 1.13.

Q: For TTTTTTCAAA, which switch fluorescence ratio is on record?
A: Its switch fluorescence ratio is 1.05.

Test system: ATP
Assay: switch fluorescence ratio, 500 uM ATP over buffer (Cy3 cluster intensity, sum of 5 cycles each) (fold (ratio)); higher = stronger signal-on switching upon ATP binding
Conditions: aptamer strand: ATP DNA aptamer (quencher-CACCTGGGGGAGTATTGCGGAGGAAGG + anchor), 100 nM annealed; ATP concentration: 500 uM; one replicate
Method in brief: as §1

Q: “TCGTCGGCAGCGTCAGATGTGTATAAGAGACAGTTTTTTTTTTTTTTTTTTTTTTTTTTTTC” was tested. Which switch fluorescence ratio did it give?
A: Its switch fluorescence ratio is 0.985.
